The whole screen tested about 350,000 compounds, of which about 9,900 (2.8%) were called active. The shares of active, inactive and inconclusive entries below differ from those in the screen. The call rests on the fitted dose curve; in most records, active means well fitted activation curve with a large enough effect; inconclusive means small, poorly fitted or top-dose-only effect; inactive means no such curve, though single readings can be large or run the other way. No potency is given beside an inconclusive call; the fits are too rough.
Experiment: A quantitative high throughput screen for small molecules that induce DNA re-replication in MCF 10a normal breast cells. Further: nearly all actives have a fitted effect of over 50% in size.
Conditions: MCF 10A DNA re-replication, Hoechst nuclear intensity, 48 h; series mostly up to 46.1 µM
Potency means the concentration at half of the fitted maximal effect; tags describe the fitted curve by direction and shape.

Compound	Potency
CCC(C)n1c(/C=C/c2ccccc2)nc2ccccc21 (centres undefined)	inactive
COc1ccc2c(c1)c(=O)c(C(=O)c1ccccc1)cn2Cc1ccccc1	inconclusive [activator, partial curve, poor fit]
O=C(/C=C/c1ccc(Cl)cc1)NCc1ccco1	inconclusive [activator, full curve, poor fit]
OC1(Cc2cc(-c3ccccc3)no2)CCN(CCCc2ccccc2)CC1	inconclusive [activator, partial curve, poor fit]
O=C(Oc1ccc(=O)n(-c2ccccc2)n1)c1ccc(F)cc1	inconclusive [activator, partial curve]
O=CNCc1nc2ccccc2n1CCc1ccccc1	inconclusive [activator, single point]
COc1ccc(C(=O)Nc2ccccc2NC(=O)c2ccc(OC)cc2)cc1	inactive
Cc1nn(-c2ccc(F)cc2F)c2c1-c1nc(N3CCCC3)ncc1CC2	inconclusive [activator, single point]
CC1C/C(=N/NC(=O)c2cccc(F)c2)c2ccc(O)cc2C1 (centres undefined)	inconclusive [activator, partial curve, poor fit]
Cc1ccc(N(CC(=O)N2CCc3ccccc3C2)S(C)(=O)=O)cc1	inconclusive [activator, single point]
Cc1ccc(C(=O)N2CC(=O)Nc3ccc(F)cc3C2c2ccccc2)cc1[N+](=O)[O-] (centres undefined)	inactive
CC1CCCN(CC(O)COc2ccc(-c3ccccc3)cc2)C1 (centres undefined)	inconclusive [activator, single point]
Cc1c(/C=N/NC(=O)c2ccccc2O)c2ccccn2c1C(=O)c1ccc(F)cc1	active: 6.51 µM
COc1ccc(C(CNC(=O)Cc2ccc(-c3ccccc3)cc2)N(C)C)cc1 (centres undefined)	inconclusive [activator, single point]
CC(=O)NN1C(=O)/C(=C\c2ccc(C)cc2)SC1=S	inconclusive [activator, partial curve, poor fit]
CCOc1ccc(NC(=O)CN2CCN(C3c4ccccc4-c4ccccc43)CC2)cc1	inconclusive [activator, single point]
CCOC(=O)c1nnn(CC(=O)N2N=C(c3cc(C)ccc3C)CC2c2ccc(OC)cc2)c1C(=O)OCC (centres undefined)	inactive
Cc1nc2ccccn2c1C(=O)N/N=C/c1ccc(CNC(=O)C(=O)Nc2ccccc2)o1	inconclusive [activator, single point]
O=C(CSc1nnc2scc(-c3ccccc3)n12)Nc1nsc(-c2ccccc2)n1	inconclusive [activator, single point]
CCCCC(C(=O)NC(C)(C)C)N(Cc1ccccc1Cl)C(=O)c1snc(C(N)=O)c1N (centres undefined)	inconclusive [activator, single point]
CCOC(=O)c1sc(NC(=O)CSc2nc3cccnc3n2C)nc1C	inactive
Cc1ccc(NC(=O)CCNS(=O)(=O)c2ccccc2F)cc1S(=O)(=O)N1CCOCC1	inactive
O=C(O)c1ccccc1S(=O)(=O)Cc1ccccc1	inconclusive [activator, single point]
CC(=O)N(C)c1ccc(N=Nc2c(C)[nH]n(C(N)=S)c2=O)cc1	inactive
Cc1cccc(C(=O)NNC(=S)NC(=O)c2cccs2)c1	inconclusive [activator, full curve, poor fit]
CCOC(=O)COc1nc(C)c(Br)c(OC)n1	inconclusive [activator, partial curve, poor fit]
COc1cccc(/C=N/Nc2cc(Cl)nc(C)n2)c1O	active: 7.31 µM
Cc1ccc(N(CC(=O)Nc2cc(Cl)ccc2Oc2ccccc2)S(C)(=O)=O)c(C)c1	inconclusive [activator, partial curve, poor fit]
O=C(O)C1CCN(C(=O)Cc2ccccc2)CC1	inactive

Source: PubChem BioAssay AID624296 (National Center for Advancing Translational Sciences (NCATS), 2012)
